Source: PubChem BioAssay AID1671193 (National Center for Advancing Translational Sciences (NCATS), 2021)
Out of some 150,000 compounds screened, about 180 (0.12%) were called active. This list was built around the results that the source calls inconclusive (neither active nor inactive); the mix of calls is not that of the screen. Calls come from the whole dose curve; as a rule, active = well fitted cell-killing curve with a large enough effect; inconclusive = small, poorly fitted or top-dose-only effect, or effect the other way; inactive = flat fitted curve, though single readings scatter. A potency beside an inconclusive call is a rough fit, not a confirmed value.

Assay: GF-AFC viability counterscreen for inhibitors of alpha-synuclein gene (SNCA) expression; note: nearly all actives have a fitted effect of over 30% in size;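 for activity change, negative = cytotoxicity: 0% = DMSO-treated cells and -100% = medium-only wells without cells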
Settings: HEK-293-SNCA-luc viability, GF-AFC fluorescence, 24 h; activity change, negative = cytotoxicity: at 57.1 µM (top of the series) unless noted
How it was run: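 HEK-293-SNCA-luc cells (1500/well) plated 24 h, then exposed 24 h to a dilution series; GF-AFC added 30 min at 37C, fluorescence 405/540 nm; normalised to medium-only and DMSO wells, Hill fit.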
Potency is the fitted concentration of half-maximal effect; tags give direction and shape of the fitted curve.

Question: Which Potency does the source give for `COc1ccc(C(=O)NC2CCN(c3cc(C(F)(F)F)nc(C)n3)CC2)cc1` here?
Answer: The Potency was inconclusive: 25.1 µM [cytotoxic, single point].

Question: With `O=C(Nc1ccc(Cl)cc1Cl)c1cnn2c1CN(C(=O)c1ccccc1F)CC2` as the molecule, how does the Potency read?
Answer: Its Potency is inconclusive: 5.01 µM [cytotoxic, single point].

Question: For `O=c1[nH]c2ccccc2n1C1CCN(c2nccc(-c3cccnc3)n2)CC1`, which Potency is on record?
Answer: The Potency was inconclusive: 15.8 µM [cytotoxic, partial curve, poor fit].

Question: For `Oc1cccc(Nc2cnc3ccc(-c4ccc(F)cc4)nn23)c1`, which Potency is on record?
Answer: The Potency was “inactive”.

Question: With `COc1ccc(C(=O)N2CCc3ccc(C(=O)NCc4ccc(C)o4)cc32)cc1` as the molecule, how does the Potency read?
Answer: The Potency was inconclusive: 10 µM [cytotoxic, partial curve, poor fit].

Question: Which Potency does the source give for `COc1ccc(Cl)cc1C(=O)NC1CCN(c2cc(-c3cccs3)[nH]n2)CC1` here?
Answer: The Potency was “inactive”.

Question: With `CCCc1noc(-c2cn(C3CCN(C(=O)c4ccc(OC)nc4OC)CC3)nn2)n1` as the molecule, how does the Potency read?
Answer: The Potency was “inactive”.

Question: For `CC(C)NC(=O)c1nc(-c2cccc(C(F)(F)F)c2)c2cnccn12`, which Potency is on record?
Answer: The Potency was “inactive”.

Question: Which Potency does the source give for `COc1ccccc1Nc1ccnc(N2CCC[C@H]2C(=O)N2CCCC2)n1` here?
Answer: The Potency was inconclusive: 39.8 µM [cytotoxic, single point].

Question: Which Potency does the source give for `Cn1cc(-c2c[nH]c3ncnc(N4CCOCC4)c23)cn1` here?
Answer: Its Potency is inconclusive: 0.0238 µM [rising, full curve].

Question: For `COc1ccc(CNC(=O)c2ccc3nc(CCc4ccccc4)oc3c2)c(OC)c1`, which Potency is on record?
Answer: Its Potency is “inactive”.

Question: For `CCn1cc(C(=O)NCCc2ccc(OC)c(OC)c2)c(=O)c2cc(S(=O)(=O)N3CCC(C)CC3)ccc21`, which Potency is on record?
Answer: The Potency was inconclusive: 31.6 µM [cytotoxic, single point].

Question: With `CCN(Cc1ccccc1)C(=O)CN1C(=O)COc2ccc(S(=O)(=O)N(CC)CC)cc21` as the molecule, how does the Potency read?
Answer: Its Potency is inconclusive: 12.6 µM [cytotoxic, partial curve].

Question: For `CC1(O)CCCN(Cc2cc3cc4c(cc3nc2-c2ccc(Cl)cc2)OCO4)C1` (configuration not stated), which Potency is on record?
Answer: Its Potency is inconclusive: 39.8 µM [cytotoxic, single point].

Question: Which Potency does the source give for `CCOc1ccc(C(=O)NCCn2cc(SCC(=O)Nc3ccccc3)c3ccccc32)cc1` here?
Answer: The Potency was inconclusive: 17.8 µM [cytotoxic, single point].

Question: Which Potency does the source give for `Cc1ccc2c(C(=O)N3CCOCC3)cc(NC(=O)C3CCC3)cc2n1` here?
Answer: The Potency was “inactive”.

Question: For `CNC(=O)[C@@H]1C[C@H](Oc2cccnc2)CN1C(=O)CN1CCCCCC1`, which Potency is on record?
Answer: Its Potency is inconclusive: 14.1 µM [cytotoxic, partial curve, poor fit].

Question: Which Potency does the source give for `O=C(CSc1ncc(-c2ccccc2)[nH]1)Nc1cccc(C(F)(F)F)c1` here?
Answer: The Potency was inconclusive: 2.51 µM [rising, full curve, poor fit].

Question: Which Potency does the source give for `CC(C)c1ccc2c(c1)-c1ccccc1S(=O)(=O)N2CC(=O)N1CCCCC1` here?
Answer: The Potency was inconclusive: 11.2 µM [cytotoxic, partial curve, poor fit].

Question: For `Cc1oc(C(O)c2ccccc2F)nc1C(=O)Nc1ccc(C(=O)Nc2ccccc2)cc1` (configuration not stated), which Potency is on record?
Answer: The Potency was inconclusive: 31.6 µM [cytotoxic, single point].

Question: With `O=C(NCc1cccc(Cl)c1)[C@@H]1CCCN1c1nccc(Nc2ccccc2Cl)n1` as the molecule, how does the Potency read?
Answer: The Potency was inconclusive: 3.55 µM [cytotoxic, single point].

Question: For `O=c1n(-c2ccncc2)nc2n1CCN(Cc1cccc3ccccc13)C2`, which Potency is on record?
Answer: Its Potency is inconclusive: 39.8 µM [cytotoxic, single point].

Question: For `CN1Cc2cccn2CC1CNC(=O)c1nn(C)c2ccccc12` (configuration not stated), which Potency is on record?
Answer: The Potency was “inactive”.

Question: Which Potency does the source give for `COc1ccc(-n2c(=O)c3c(c4cc(OC)ccc4n3C)n(Cc3ccc(F)cc3Cl)c2=O)cc1` here?
Answer: The Potency was inconclusive: 0.631 µM [rising, full curve, poor fit].

Question: For `CC(C)CCN1CCCCC12Cc1ccccc1CNC2=O` (configuration not stated), which Potency is on record?
Answer: The Potency was “inactive”.

Question: With `COc1cccc(-c2ccc(CN3CCCC(N[S+](=O)([O-])c4ccccc4)C3)cc2)c1` (configuration not stated) as the molecule, how does the Potency read?
Answer: Its Potency is “inactive”.

Question: Which Potency does the source give for `CCn1nc(C)c(CCN(C)C(=O)Nc2cc(C)cc(C)c2)c1C` here?
Answer: Its Potency is inconclusive: 14.1 µM [rising, partial curve, poor fit].

Question: Which Potency does the source give for `COc1ccc(CNC(=O)[C@H]2CCC[C@H]2NC(=O)c2cnc(C)cn2)c(OC)c1` here?
Answer: Its Potency is “inactive”.

Question: With `COc1ccc(-c2ccc3ncc(Nc4ccccc4)n3n2)cc1OC` as the molecule, how does the Potency read?
Answer: Its Potency is inconclusive: 17.8 µM [cytotoxic, partial curve, poor fit].

Question: For `COc1cc(-c2nc(-c3cccc(Cl)c3)c(-c3ccccc3)[nH]2)cc(OC)c1OC`, which Potency is on record?
Answer: The Potency was inconclusive: 39.8 µM [cytotoxic, single point].

Question: With `CC1CCC(NC(=O)c2ccc(CS(=O)(=O)c3c(Cl)cccc3Cl)o2)CC1` (configuration not stated) as the molecule, how does the Potency read?
Answer: The Potency was inconclusive: 6.31 µM [cytotoxic, partial curve, poor fit].

Question: With `COc1ccc(CCNC(=O)c2ccc3nnc(-c4cc(C(F)(F)F)cc(C(F)(F)F)c4)n3c2)cc1` as the molecule, how does the Potency read?
Answer: Its Potency is “inactive”.

Question: For `COc1cccc(-c2nc3cnccn3c2NCCC(=O)Nc2cccc(Cl)c2)c1`, which Potency is on record?
Answer: The Potency was inconclusive: 20 µM [rising, single point].

Question: For `CCc1ccc(C(=O)Nc2cc(CN3CCN(C)CC3)cc(C(F)(F)F)c2)cc1C#Cc1cnc2ccnn2c1`, which Potency is on record?
Answer: Its Potency is inconclusive: 42.9 µM [cytotoxic, single point].

Question: For `O=C(CC1N=C2c3ccccc3N=C(SCc3cccc(F)c3)N2C1=O)NCc1ccc2c(c1)OCO2` (configuration not stated), which Potency is on record?
Answer: Its Potency is inconclusive: 25.1 µM [cytotoxic, partial curve, poor fit].

Question: Which Potency does the source give for `COc1ccc(CN2CCOC[C@H]2c2ncc(-c3ccc(S(C)(=O)=O)cc3)[nH]2)cc1` here?
Answer: The Potency was “inactive”.

Question: With `COc1ccc(CNC(=O)Nc2ncc([N+](=O)[O-])s2)cc1` as the molecule, how does the Potency read?
Answer: The Potency was inconclusive: 37.7 µM [cytotoxic, partial curve, poor fit].

Question: For `COc1cccc(C(=O)N2CCCC2C(=O)N2CCCC2c2nc3ccncc3[nH]2)c1` (configuration not stated), which Potency is on record?
Answer: Its Potency is “inactive”.

Question: For `CC(=O)OC(C)(C)/C=C/C(=O)[C@](C)(O)C1[C@H](O)C[C@@]2(C)[C@@H]3CC=C4[C@@H](C[C@H](O[C@@H]5O[C@H](CO)[C@@H](O)[C@H](O)[C@H]5O)C(=O)C4(C)C)[C@]3(C)C(=O)C[C@]12C` (some centres not stated), which Potency is on record?
Answer: Its Potency is inconclusive: 12.6 µM [cytotoxic, single point].

Question: Which Potency does the source give for `CCCCOc1ccc(C(=O)N2CCC(Cc3nc(-c4cnccn4)no3)CC2)cc1` here?
Answer: The Potency was inconclusive: 28.2 µM [cytotoxic, single point].

Question: For `O=C(Cn1cccc1-c1nc(-c2ccc3c(c2)OCO3)no1)N1CCCc2ccccc21`, which Potency is on record?
Answer: Its Potency is inconclusive: 31.6 µM [cytotoxic, single point].

Question: With `O=C(CN1C(=O)CSc2ccc(S(=O)(=O)N3CCCCC3)cc21)NCc1ccc(F)cc1Cl` as the molecule, how does the Potency read?
Answer: The Potency was inconclusive: 25.1 µM [cytotoxic, single point].

Question: With `O=C(NCc1ccco1)c1ccc2c(c1)N(Cc1ccc(F)cc1)C(=O)c1ccccc1S2=O` (configuration not stated) as the molecule, how does the Potency read?
Answer: Its Potency is inconclusive: 35.5 µM [cytotoxic, single point].

Question: With `Cc1ccc(C2Cn3nnc(C(=O)N4CCC(C(=O)NC5CCCC5)CC4)c3CO2)cc1` (configuration not stated) as the molecule, how does the Potency read?
Answer: Its Potency is inconclusive: 39.8 µM [cytotoxic, single point].

Question: Which Potency does the source give for `COc1cccc(Cc2nc3ccccc3nc2SCC(=O)N2CCCCC2C)c1` (configuration not stated) here?
Answer: The Potency was inconclusive: 20 µM [cytotoxic, partial curve].

Question: Which Potency does the source give for `CCc1nnc(NC(=O)c2nc(S(C)(=O)=O)ncc2Cl)s1` here?
Answer: Its Potency is inconclusive: 39.8 µM [cytotoxic, single point].

Question: Which Potency does the source give for `Cc1cccc(-n2c(=O)c3ccccc3n(Cc3ccccc3C#N)c2=O)c1` here?
Answer: The Potency was inconclusive: 3.98 µM [cytotoxic, full curve, poor fit].

Question: With `CNC(=O)c1cccc(-c2cnc(Nc3ccncc3)c3c2CCO3)c1` as the molecule, how does the Potency read?
Answer: The Potency was “inactive”.

Question: Which activity change, negative = cytotoxicity does the source give for `COc1ccc(NC(=O)CCc2ccc3c(c2)CN(C(=O)NC(C)C)CCO3)cn1` here?
Answer: Its activity change, negative = cytotoxicity is inactive: -2.71% [at 12.5 µM].

Question: With `CC(C)c1ccc(C2=CC(c3cccc(Cl)c3)n3ncnc3N2)cc1` (configuration not stated) as the molecule, how does the Potency read?
Answer: Its Potency is inconclusive: 31.6 µM [rising, partial curve, poor fit].

Question: For `Cc1ccc(Nc2ccnc(N3CCC(NC(=O)C4CC4)CC3)n2)cc1`, which Potency is on record?
Answer: Its Potency is “inactive”.

Question: Which Potency does the source give for `Cc1ccncc1C(=O)N1CCC2(CC1)CC(N1CCN(c3ccccn3)CC1)CCO2` (configuration not stated) here?
Answer: The Potency was “inactive”.

Question: With `COc1cccc(N2CCN(C(=O)c3ccc(CS(=O)c4cccc(Cl)c4)o3)CC2)c1` (configuration not stated) as the molecule, how does the Potency read?
Answer: The Potency was inconclusive: 2.24 µM [cytotoxic, full curve, poor fit].

Question: Which Potency does the source give for `COc1ccc(Nc2ccnc(N3CCN(C(=O)Nc4ccc(Cl)cc4)CC3)n2)cc1` here?
Answer: Its Potency is inconclusive: 31.6 µM [cytotoxic, single point].

Question: Which Potency does the source give for `COc1ccc(C(=O)NC2CCN(c3nc4ncccc4o3)CC2)cc1` here?
Answer: The Potency was inconclusive: 0.708 µM [cytotoxic, full curve, poor fit].

Question: With `N#Cc1cccnc1-c1ccc(C(=O)N2CCC(NC(=O)Nc3ccc(Cl)cc3)CC2)cc1` as the molecule, how does the activity change, negative = cytotoxicity read?
Answer: Its activity change, negative = cytotoxicity is inactive: -6.31% [at 12.5 µM].

Question: For `O=C1c2c(nc(COc3ccccc3)n2Cc2ccccc2)NCCN1Cc1cccc(Cl)c1`, which Potency is on record?
Answer: Its Potency is inconclusive: 28.2 µM [cytotoxic, single point].

Question: For `CCCNC(=O)N1CCOC[C@H](Oc2ccccc2)C1`, which Potency is on record?
Answer: Its Potency is “inactive”.

Question: For `Cc1cc(N2CCN(C)CC2)nc2ccc(NC(=O)Nc3ccccc3)cc12`, which Potency is on record?
Answer: The Potency was inconclusive: 28.2 µM [cytotoxic, partial curve, poor fit].

Question: Which Potency does the source give for `COc1ccc(CN2C(=O)[C@@H]3C[C@@H](CN3C3CCC3)Oc3ccccc32)cc1` here?
Answer: The Potency was inconclusive: 7.94 µM [cytotoxic, full curve, poor fit].

Question: For `COCCn1c(=O)c2c(n1Cc1ccccc1)CN(C(=O)c1cc3ccccc3[nH]1)CC2`, which Potency is on record?
Answer: Its Potency is “inactive”.

Question: For `Cn1cnc(S(=O)(=O)N2CCC(OCc3noc(C4CCCO4)n3)CC2)c1` (configuration not stated), which Potency is on record?
Answer: The Potency was inconclusive: 39.8 µM [cytotoxic, single point].
